The results in this text go back to PubChem BioAssay AID488969 (Vanderbilt High Throughput Screening Facility, 2010).

Over roughly 110,000 compounds, “z-score” has its median near -0.1; the highest 2% begin near 2. The list shows a part of the results. Activity calls are given as the source filed them.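 The calls were made as follows: active = z-score in the third read window above 3 or below -3; inactive = the rest.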

The target in this test is Metabotropic glutamate receptor 8 (Rattus norvegicus) (UniProt P70579). The test is described as follows: mGluR8 Gi/Go-coupled signaling modulation – cell-based, rat, thallium flux, HTS, primary screen (AID 488969). The following applies: HEK293 rat mGluR8, GIRK (G protein-gated inwardly rectifying potassium channel) thallium flux, FluoZin2; at 10 µM; stronger effect = higher value; submaximal glutamate (EC20) added with thallium.
UniProt P70579, sequence (P70579 whole entry, looked up): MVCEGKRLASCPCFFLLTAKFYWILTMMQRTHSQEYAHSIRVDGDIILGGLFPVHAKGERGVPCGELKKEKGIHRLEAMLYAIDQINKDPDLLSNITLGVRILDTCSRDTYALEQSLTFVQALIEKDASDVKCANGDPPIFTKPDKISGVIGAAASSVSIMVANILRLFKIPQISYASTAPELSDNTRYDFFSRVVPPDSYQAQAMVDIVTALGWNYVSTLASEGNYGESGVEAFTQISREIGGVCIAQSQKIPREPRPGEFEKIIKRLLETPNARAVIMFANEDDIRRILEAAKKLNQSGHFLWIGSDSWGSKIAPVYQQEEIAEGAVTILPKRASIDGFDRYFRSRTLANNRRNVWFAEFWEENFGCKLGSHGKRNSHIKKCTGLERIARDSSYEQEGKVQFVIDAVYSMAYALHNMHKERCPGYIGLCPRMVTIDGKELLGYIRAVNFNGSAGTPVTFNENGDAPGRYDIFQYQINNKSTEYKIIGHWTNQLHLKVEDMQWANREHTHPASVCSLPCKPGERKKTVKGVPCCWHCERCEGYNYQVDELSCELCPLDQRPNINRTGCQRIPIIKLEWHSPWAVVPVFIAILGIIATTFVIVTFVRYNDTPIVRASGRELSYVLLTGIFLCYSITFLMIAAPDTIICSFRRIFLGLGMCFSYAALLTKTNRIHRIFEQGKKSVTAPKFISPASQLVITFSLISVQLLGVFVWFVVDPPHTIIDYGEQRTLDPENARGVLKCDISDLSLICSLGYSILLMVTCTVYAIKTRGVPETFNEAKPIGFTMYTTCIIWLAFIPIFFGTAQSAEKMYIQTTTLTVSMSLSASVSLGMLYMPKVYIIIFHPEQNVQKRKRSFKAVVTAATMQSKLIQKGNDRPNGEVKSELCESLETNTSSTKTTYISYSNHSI
In the case of `CCOC(=O)Nc1ccc(S(=O)(=O)N2CCOCC2)cc1`, the z-score was -0.614. Under `Cc1nnc(SCC(=O)Nc2ccc(N3CCOCC3)cc2)n1-c1ccccc1` stands -0.401; under `O=C(NCc1ccc(Cl)cc1Cl)C(=O)N1CCCCC1`, 0.112; under `COC(=O)c1ccc(NC(=S)N2CCN(Cc3ccccc3)CC2)cc1`, -0.693. Compound `Cn1c(SCC(=O)c2ccccc2)nc2cccnc21` had a z-score of 0.0229.

`O=C(CCNc1cc(Cl)cc(Cl)c1)c1cccs1`: the z-score came out at 0.0113. In the case of `Cc1cccc(/C=N/NC(=O)Cn2nc(C)cc2C)n1`, the z-score was 0.538. `COC(=O)[C@H](C)NC(=O)Nc1ccc(S(N)(=O)=O)cc1` returned a z-score of -0.275. The compound `Cc1nc(NC(C)c2ccccc2)c2c3c(sc2n1)CCC3` (centres undefined) showed a z-score of 1.26e-05. Under `O=C(CCCN1C(=O)/C(=C/c2cccc(Br)c2)SC1=S)Nc1ccccn1` stands 0.645; under `CCc1cc2c(=O)nc3n(c2s1)Cc1ccccc1/C3=C(/O)c1cccc([N+](=O)[O-])c1`, 0.539. Under `Cc1cc(C(=O)Nc2c(F)cc(F)cc2Br)no1` stands 0.293. The compound `CCN(CC)CCOC(=O)c1ccc(NC(=O)/C=C/c2cccs2)cc1` displayed a z-score of -0.262. Consider `c1nc(COc2nsnc2N2CCOCC2)cs1`, for which the z-score was -0.000248. Regarding `O=C(CN(CC1CCCO1)S(=O)(=O)c1ccc(S(=O)(=O)NC2CC2)cc1)Nc1ccccc1` (centres undefined), the z-score was determined as 0.0542. Under `CC1CCCC(C)N1CCNC(=O)Cn1nc(-c2ccccc2)ccc1=O` (centres undefined) stands 0.0773. Take `CCn1nnnc1SCC(=O)Nc1nc2ccc(OC)cc2s1`: the z-score was 0.462. For `COc1cc(SC#N)ccc1N=Cc1c(C)[nH]n(-c2ccc(C)c(C)c2)c1=O`, the z-score was determined as 0.116.

In the case of `CCCC(NS(=O)(=O)c1ccc(OC)cc1)C(=O)O` (centres undefined), the z-score is 0.0385. In turn, `Cc1onc(-c2ccccc2)c1-c1n[nH]c(=S)n1-c1ccc(C(=O)O)cc1` displayed a z-score of 0.0053. Under `COc1cc2c(cc1OC)C(c1cc3ccccc3oc1=O)=NC(C)(C)C2` stands 1.03; under `O=[N+]([O-])C(/C=C(\Cl)[N+](=O)[O-])=C1N(Cc2ccc(Cl)nc2)CCN1Cc1ccc(Cl)nc1`, -0.212.

Turning to `O=C(CCn1c(=S)[nH]c2ccccc2c1=O)NCC1CCCO1` (centres undefined), the z-score was -0.275. The compound `N#Cc1nc(-c2cccc(Cl)c2)oc1NCc1cccnc1` displayed a z-score of -0.665. Under `CCCC1=NN(C(=O)CCc2ccccc2O)C(O)(C(F)(F)F)C1` (centres undefined) stands -0.16. As to `Cc1ccc(Cn2c(CN3CCN(C(=O)c4ccco4)CC3)nc3c2c(=O)n(C)c(=O)n3C)cc1`, the z-score is -0.356. Under `COc1ccccc1NC(=O)CSc1nc(O)cc(=O)[nH]1` stands 0.596; under `COc1ccc(NC(=O)C2CCCO2)cc1` (centres undefined), 0.12; under `CCN(CC)S(=O)(=O)c1ccc(N=Nc2c(C)[nH]n(C(N)=S)c2=O)cc1`, 0.608. Regarding `COc1cc(C)c(Br)cc1S(=O)(=O)N1CCCC1`, the z-score is 0.188.

Consider `CCOc1ccc(NC(=O)c2cc(SC)ccc2Cl)cc1`, for which the z-score was -0.217.

`CCOC(=O)N1CCN(Cc2nc3c(c(=O)n(C)c(=O)n3C)n2Cc2ccccc2)CC1` registered a z-score of -0.452. `CC(=O)C1=C(C)NC(SCC(N)=O)=C(C#N)C1C` (centres undefined) yielded a z-score of -0.259.

`CCCCN(CCCC)CC(O)CN1C(=O)NC(C)(C)C1=O` (centres undefined) came in with a z-score of -0.194.

`O=C(NCC1CCCO1)C1CCC(=O)N1Cc1ccc(F)cc1` (centres undefined) registered a z-score of -0.109.

Compound `O=S(=O)(Cc1ccc(Cl)cc1)c1ccccc1-c1nnc(-c2ccccc2)o1` had a z-score of -0.0704. Then `COc1cc(OC)cc(-c2nnc(Nc3nc4c(F)cccc4s3)o2)c1`, with active: 9.94. Then `COc1ccc(-c2cc(C(F)(F)F)nc(N3CCCCC3)n2)cc1OC`, with 1.35. Then `COc1ccc(C(=O)c2ccccc2Cl)cc1`, with -0.198; and `O=C(CN1CCC(NC(=O)c2cccc(F)c2)CC1)NCc1ccccc1F`, with -0.288. For the compound `CN1C(=O)CC(N2CCN(c3ccc(Cl)c(Cl)c3)CC2)C1=O` (centres undefined), the z-score amounted to 0.0378. The compound `COc1ccc(-c2noc(-c3ccco3)n2)cc1OC` displayed a z-score of 0.0385. Then `COc1ccc(NC(=O)COc2ccc(/C=N/NC(=O)c3cccnc3)cc2OC)cc1`, with -0.161; and `COc1cccc(N2CCN(Cc3nc(N)nc(Nc4ccccc4)n3)CC2)c1`, with -0.209. For `Cn1c(Cc2ccccc2)nnc1SCC(=O)N1CCCCC1`, the z-score is -0.938. The compound `CCOC(=O)C1CCN(C(=O)c2ccc(N(C)S(C)(=O)=O)cc2)CC1` gave a z-score of 0.386.

Compound `Cc1ccc(S(=O)(=O)N(Cc2nccn2C)C(C)C)cc1` returned a z-score of 0.292. Compound `COc1ccc2oc(C(=O)c3ccccc3)c(N)c2c1` came in with a z-score of 0.111. `COc1ccc2cc3cc(C(=O)Nc4ccc5c(c4)OCCO5)oc3nc2c1` returned a z-score of -0.0193. Under `CC(=O)Nc1cccc(NC(=O)CCc2ccccc2)c1` stands -0.12. The compound `CCOC(=O)N1CCN(C(=O)c2cn(CCOC)c(=O)c3c2c2ccccc2n3C)CC1` gave a z-score of 0.0323. `CC(=O)Nc1ccc(S(=O)(=O)NCC2CCC(C(=O)NCCC(C)C)CC2)cc1` (centres undefined) registered a z-score of -0.0933. Under `CCOC(=O)C1CCN(C(=O)c2cn(C)c(=O)c3cc(OC)c(OC)cc23)CC1` stands 0.144; under `CCC/C(=N\NC(=O)CNC(=O)/C=C/c1ccco1)c1ccccc1`, -0.408; under `Cc1ccc(OCC(=O)N/N=C\c2c(C)[nH]n(-c3ccccc3)c2=O)c([N+](=O)[O-])c1`, -0.329. Then `COc1ccc(Cl)cc1N(CC(=O)NCC(C)C)S(=O)(=O)c1ccc(C)c([N+](=O)[O-])c1`, with 0.0721; and `COc1cccc(/C=c2\s/c(=C/C(=O)c3ccc(C)cc3)[nH]c2=O)c1OC`, with 1.51; and `Oc1ccc(/C=N/NC2=NCCCCC2)cc1`, with 0.0853. In the case of `CCc1ccc(-c2cc(C(=O)NN3CCOCC3)c3ccccc3n2)cc1`, the z-score was -0.195.

`Cc1ccc(CN2CCc3c(OCC(=O)Nc4cc(C)ccc4C)cccc3C2=O)cc1` gave a z-score of -0.206. Compound `COc1ccc(Cc2nnc(NC(=O)C3CCCO3)s2)cc1OC` (centres undefined) registered a z-score of -0.138. As to `COc1ccc(NC(=S)N/N=C2/CCCc3c(C)cc(C)cc32)cc1`, the z-score turned out to be 0.0188. `CCC(C)(C)n1nnnc1C(c1cc2cc(OC)c(OC)cc2[nH]c1=O)N1CCc2ccccc21` (centres undefined) gave a z-score of -0.106. Under `Cn1c(SCC(=O)c2ccc3c(c2)OCO3)nnc1-c1ccccn1` stands -0.167. Under `Cc1nnc(NC(=O)Cc2cccs2)s1` stands 2.4; under `O=C(CCSCCc1ccccn1)Nc1ccc(Br)cn1`, -0.244; under `O=c1cc(CSc2nnnn2-c2ccccc2)[nH]c2[nH]n(-c3ccccc3)c(=O)c12`, 0.363.

Take `O=C(COC(=O)c1cc(-c2ccco2)nc2ccccc12)NCc1ccccc1`: the z-score was -0.152. Regarding `Cc1cc(C)n(C(=O)c2cccc(S(=O)(=O)N3CCOCC3)c2)n1`, the z-score was -0.0372. Compound `N#Cc1ccsc1NC(=O)c1ccccn1` showed a z-score of 0.527. Under `CC(C)(C)c1ccc(CN2N=Nc3ccccc3S2(=O)=O)cc1` stands 0.135; under `O=C(O)/C=C/C(=O)Nc1ccccc1C(=O)Nc1ccccc1`, 0.317; under `CC1CC(C)CN(CC(=O)N2CCCc3c2c(=O)oc2ccc(OCc4ccccc4)cc32)C1` (centres undefined), 0.763.

The compound `CC1CCCCC1NC(=O)c1ccc2c(c1)[nH]c(=O)n2C1CCCC1` (centres undefined) gave a z-score of -1.9. As to `Cc1ccc(S(=O)(=O)ON2C(=O)c3ccccc3C2=O)c(C)c1`, the z-score is -0.357. Consider `CC(C)CC(C(=O)OCC(=O)Nc1ncc(Cl)cc1Cl)N1C(=O)c2ccccc2C1=O` (centres undefined), for which the z-score was -0.273. Compound `COc1ccc(C(=O)c2cc(C(C)=O)c(Nc3ccccc3)s2)cc1` had a z-score of -0.0397. `CCCc1[nH]nc2c1C(c1ccncc1)C(C#N)=C(N)O2` (centres undefined) had a z-score of 0.292. On to `CCc1cccc(C)c1NC(=S)NCC(c1cccnc1)N1CCOCC1` (centres undefined), for which the z-score was -0.301. As to `COc1ccc(C(=O)N[C@H](C(=O)Nc2ccc(OC)nc2)C(C)C)cc1`, the z-score was 0.211. In turn, `CCCn1c(-c2cc(OC)c(OC)c(OC)c2)nc2nc3ccccc3nc21` showed a z-score of -1.76. On to `Cc1ccc(NC(=S)NC2CCN(Cc3ccccc3)CC2)cc1`, for which the z-score was -0.0128. Under `CCN(CC)C(=O)CSc1nc(O)c(Cc2ccccc2)c(=O)n1-c1ccccc1` stands -0.458; under `Cc1ccc(C)n1-c1ccc(C(=O)N2CCOCC2)cc1`, 0.198. Then `Cc1nc2sc3c(c2c(=O)o1)CCCC3`, with -0.121. For `COc1ccc(NC(=O)C2C3C=CC(C3)C2C(=O)NCc2ccco2)c(OC)c1` (centres undefined), the z-score came to 0.342. As to `CC(=O)Nc1ccc(S(=O)(=O)Oc2cccc(N3C(=O)C4CC=CCC4C3=O)c2)cc1` (centres undefined), the z-score was -0.193. Under `C=CCS(=O)(=O)c1nc2ccccc2s1` stands 0.0304; under `CCC1CCCCN1CCNS(=O)(=O)c1ccc2c(c1)CCN2C(C)=O` (centres undefined), 0.44; under `Cc1ccc(S(=O)(=O)N/N=C\c2cccnc2)cc1`, 0.22.

Regarding `CCOc1cc2oc(=O)c3c(c2cc1Cl)CCC3`, the z-score was -0.228. Compound `O=C(/C=C/c1cccc([N+](=O)[O-])c1)NCCSCc1ccco1` returned a z-score of -0.24. The compound `COc1ccccc1C(=O)N/N=C(\C)c1ccc(NC(=O)C2CC2)cc1` yielded a z-score of -0.0805.

Consider `O=C(CCc1nc2ccccc2s1)OCC(=O)N1CCN(C(=O)c2ccco2)CC1`, for which the z-score is -0.142.

In turn, `Cc1ccc(C)c(Cn2c(=O)n(CCC(=O)NCc3ccco3)c(=O)c3sccc32)c1` came in with a z-score of -0.0143.

Regarding `COc1ccc(C(=O)Nc2ccc(Cl)cc2C(=O)N2CCCC(C)C2)cc1OC` (centres undefined), the z-score was -0.274. Under `O=C(/C=C/c1ccccc1[N+](=O)[O-])Nc1cccnc1` stands -0.103; under `CC(C)CCn1c(=O)c(C(=O)N/N=C/c2cccc(F)c2)c(O)c2ccccc21`, -0.147. Then `O=C1CC(c2ccccc2)CCc2sccc2N1` (centres undefined), with 0.252; and `CCOC(=O)c1c(-c2ccc(OC)cc2)csc1/N=C/C1=C(O)CCCC1=O`, with -0.288; and `Cc1c(NC(=O)C(C)N2C(=O)c3ccccc3C2=O)c(=O)n(-c2ccccc2)n1C` (centres undefined), with 0.885. Under `Cc1cccc(N2CCN(C(=O)NCc3ccc(Cl)cc3)CC2)c1` stands -0.188; under `O=C(CN1CCOCC1)N/N=C/c1cc2ccccc2nc1Cl`, 0.0436. The compound `CCCCNc1ccccc1C(=O)OCC(=O)Nc1ccc(S(N)(=O)=O)cc1` returned a z-score of -0.207. Then `CC(=O)C1=C(C)NC(SCc2cccc([N+](=O)[O-])c2)=C(C#N)C1c1ccco1` (centres undefined), with -0.0757; and `CCS(=O)(=O)n1nc(-c2ccc(Cl)cc2)nc1SCc1ccccc1`, with 0.375.

`Cc1ccc(C(=O)COC(=O)c2cc(Cl)nc3ccccc23)cc1C` came in with a z-score of -0.159. In the case of `C=CCSC1=C(C#N)C(c2cc(Br)c(O)c(OC)c2)CC(=O)N1` (centres undefined), the z-score was 0.26. In the case of `Cc1c(CCOC(=O)CC23CC4CC(CC(C4)C2)C3)sc[n+]1Cc1ccccc1`, the z-score was 0.256.
